Test results as given in PMC4336329 (PLoS ONE, 2015).
About 2,200 (0.71%) of roughly 310,000 compounds showed an effect of 50% or more. Effects have a minus sign here. Some of the results follow.

target: human ether-à-go-go-related gene (hERG) potassium channel (human, UniProt Q12809); test: primary screen, population patch clamp on CHO cells stably expressing hERG
Sequence (Q12809 whole entry, looked up): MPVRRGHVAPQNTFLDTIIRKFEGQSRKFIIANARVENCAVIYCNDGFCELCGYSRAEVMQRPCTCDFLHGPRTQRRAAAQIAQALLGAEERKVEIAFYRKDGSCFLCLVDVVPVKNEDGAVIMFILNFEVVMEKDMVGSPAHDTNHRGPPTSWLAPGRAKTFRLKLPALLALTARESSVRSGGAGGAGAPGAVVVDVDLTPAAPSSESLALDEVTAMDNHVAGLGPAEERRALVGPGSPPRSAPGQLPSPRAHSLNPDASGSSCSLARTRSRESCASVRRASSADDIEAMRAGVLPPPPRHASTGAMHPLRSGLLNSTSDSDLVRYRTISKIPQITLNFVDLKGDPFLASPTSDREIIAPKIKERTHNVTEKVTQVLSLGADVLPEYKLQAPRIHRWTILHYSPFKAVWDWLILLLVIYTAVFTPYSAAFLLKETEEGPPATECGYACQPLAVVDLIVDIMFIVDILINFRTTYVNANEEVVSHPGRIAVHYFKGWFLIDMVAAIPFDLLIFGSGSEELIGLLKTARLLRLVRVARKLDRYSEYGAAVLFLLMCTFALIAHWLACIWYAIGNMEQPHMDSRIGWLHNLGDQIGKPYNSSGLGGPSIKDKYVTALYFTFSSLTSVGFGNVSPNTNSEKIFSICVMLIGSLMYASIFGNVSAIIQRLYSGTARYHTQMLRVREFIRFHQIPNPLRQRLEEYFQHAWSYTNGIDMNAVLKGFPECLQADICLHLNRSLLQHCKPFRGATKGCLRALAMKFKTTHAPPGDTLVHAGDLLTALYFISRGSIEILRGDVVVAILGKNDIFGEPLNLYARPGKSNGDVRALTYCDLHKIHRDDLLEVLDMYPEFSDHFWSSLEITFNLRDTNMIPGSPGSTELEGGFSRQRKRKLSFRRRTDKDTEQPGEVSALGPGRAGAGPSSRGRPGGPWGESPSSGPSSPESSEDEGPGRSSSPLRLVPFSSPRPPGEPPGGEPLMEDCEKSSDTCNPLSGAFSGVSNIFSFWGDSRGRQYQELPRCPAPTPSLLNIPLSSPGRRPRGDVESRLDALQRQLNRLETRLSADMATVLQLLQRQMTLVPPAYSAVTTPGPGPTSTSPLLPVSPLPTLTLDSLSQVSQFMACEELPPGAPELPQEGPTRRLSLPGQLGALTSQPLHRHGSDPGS

SMILES | hERG current change (%, negative = inhibition) at 1uM
CCSc1nc(-c2ccccc2)c(C#N)c(=O)[nH]1 | 8.08%
NC(=O)CC(NC(=O)Cc1cccc2ccccc12)c1ccc(N2CCC(Br)CC2)c([N+](=O)[O-])c1 (stereo not drawn) | 3.18%
S=C(NCc1ccc(Cl)c(Cl)c1)NCc1ccco1 | 16%
CC(C)(C)c1cc(C(F)(F)F)n2ncc(-c3ccccc3)c2n1 | 15.8%
Cn1c(SCC(=O)NC2CC2)nnc1-c1cccc(NC(=O)c2ccccc2F)c1 | 9.12%
Cc1ccc(C(=O)N2CCN(C34CC5CC(CC(C5)C3)C4)CC2)o1 | 15.9%
COc1cc(C(=O)OCC(=O)NC(=O)c2cccn2C)ccc1OC(F)F | 11.1%
C=CCN1C(=O)C(C)(C)N(C(=O)c2cccc([N+](=O)[O-])c2)c2ccccc21 | 5.89%
CCOC(=O)CNC(=O)C12CC3CC(C1)CC(c1ccc(C)cc1)(C3)C2 | 7.72%
CCc1ccc(C(C)NC(=O)c2ncn[nH]2)cc1 (stereo not drawn) | -0.151%
CC1CCCCC1NC(=O)CN(C)S(=O)(=O)c1cccc2nsnc12 (stereo not drawn) | 14.2%
CCOc1ccc(Cn2c(O)cc(=O)[nH]c2=O)cc1 | 16.3%
C=CCNC(=O)CSc1nc2sc3c(c2c(=O)n1CCCOC)CCC3 | -18.6%
Cc1ccc(C(=O)COC(=O)CCN2C(=O)C3C4CC(C(Br)C4Br)C3C2=O)cc1 (stereo not drawn) | 8.98%
CCOC(=O)c1ccc(NC(=O)N2CC3CC(C2)c2cccc(=O)n2C3)cc1 (stereo not drawn) | 15.3%
CC(C)c1nc(NCCN2CCOCC2)c(C#N)c2c1COC(C)(C)C2 | 13.3%
CCOc1ccc(S(=O)(=O)NCCC(=O)N2CCN(c3ccccc3O)CC2)cc1 | -1.88%
CSc1ccc(CCNC(=O)CS(=O)(=O)Cc2nc(-c3ccccc3F)oc2C)cc1 | 11.2%
CCOC(=O)/C(C#N)=C1/C=CN(C)C=N1 | 8.2%

SMILES | hERG current change (%, negative = inhibition) at 1uM
Cn1nc(C(=O)NC2CCC(O)CC2)c2ccccc2c1=O (stereo not drawn) | 16%
COC(=O)CCC(=O)OC1(C)C(=O)C=C2C=C(C3CC3)N(Cc3ccc(OC)cc3)C=C2C1=O (stereo not drawn) | 16.6%
O=c1[nH]cnc2c1ncn2[C@@H]1C[C@@H](O)[C@H](CO)O1 | 15.9%
COc1cccc(C(=O)Nc2ccc3c(cc2=O)[C@@H](NC(C)=O)CCc2cc(OC)c(OC)c(OC)c2-3)c1 | 10.2%
O=C(c1ccccc1)c1cccc(NC(=O)C2CC2)c1 | 12.7%
CCOC(=O)N1CCN(C(=O)c2ccc3c(=O)n(CCc4ccccc4)c(=O)[nH]c3c2)CC1 | 14.2%
COc1c(N)c2ccccc2[nH]c1=O | -0.187%
CC(C)(C)c1cccc(C2(O)C(=O)c3ccccc3C2=O)c1O | 12.8%
COc1ccc(-n2nc(C(=O)NCC(=O)N3CCN(c4ccccc4OC)CC3)c3ccccc3c2=O)c(OC)c1 | 8.77%
O=C(COc1ccccc1)Nc1nnc(-c2ccco2)o1 | 4.72%
COc1ccc(C(C(=O)NCC2CCCO2)N(Cc2ccccc2)C(=O)CNC(=O)c2ccco2)cc1OC (stereo not drawn) | 8.02%
CCC(c1nnnn1CC1CCCO1)N(CCCO)Cc1cc2cccc(C)c2[nH]c1=O (stereo not drawn) | 0.497%
CCOc1ccccc1CN1CCNC(=O)C1CC(=O)N(C)Cc1cnccn1 (stereo not drawn) | 17.2%
COc1ccc(NCC(=O)N/N=C/C=C\c2ccccc2)cc1 | 4.6%
COc1ccc(C(=O)C2CCCN(C(=O)c3ccnn3C)C2)cc1OC (stereo not drawn) | 14.6%
O=C(/C=C/c1ccc(Cl)cc1)N1CCOCC1 | 12.6%
COc1ccc(CNC(=O)CN(C(=O)c2snc(C(N)=O)c2N)c2ccc(OC)c(OC)c2)cc1 | 6.47%
Cc1ccc(CNc2c(C=O)c(=O)[nH]c3ccccc23)cc1 | 8.25%
Cc1ccc2nc(Br)c3c(c2c1)OC(CBr)C3 (stereo not drawn) | 7.46%

SMILES | hERG current change (%, negative = inhibition) at 1uM
CCOC(=O)CSc1nc(C)cc(C)n1 | 9.72%
Nc1nnc(SCC(=O)OCC(=O)Nc2ccc(Br)cc2)s1 | 9.46%
Cc1cc(C)c(S(=O)(=O)NCC2CCC(C(=O)NCCCN3CCC(C)CC3)CC2)c(C)c1 (stereo not drawn) | -52.9%
Cc1cc(C(=O)N/N=C/c2c3ccccc3cc3ccccc23)n[nH]1 | 10.6%
CCCOC(=O)c1ccc(Cl)c(NC(=O)c2cccnc2)c1 | -2.24%
COc1ccc(C2CC(=O)c3ccccc3O2)cc1 (stereo not drawn) | 11.5%
Cc1snc(S(=O)(=O)Cc2c(Cl)cccc2Cl)c1C#N | 3.68%
COc1ccc(-c2noc3c2-c2nc(-c4ccccc4C)sc2CC3)cc1 | 15.4%
COc1ccccc1NC(=O)C(C)OC(=O)CC1CCCC1 (stereo not drawn) | 3.89%
CN(C)S(=O)(=O)c1ccc(C(=O)N2CCN=C2SCc2ccccc2)cc1 | 18.6%
O=C(c1nn(Cc2ccccc2)c(=O)c2ccccc12)N1CCN(c2ccccn2)CC1 | -14.5%
COc1ccc(S(=O)(=O)Nc2cccc(F)c2C)cc1C(=O)N1CCOCC1 | 18.5%
COc1ccc(NS(=O)(=O)c2cccc(-c3n[nH]c(=S)n3Cc3ccccc3)c2)cc1 | 24.5%
O=C(O)CCC(NC(=O)OCc1ccccc1)C(=O)O (stereo not drawn) | 12%
CCOC(=O)c1cc2c(ccn2C)n1CC(=O)N1CCN(c2cccc(C(F)(F)F)c2)CC1 | 5.6%
CN(C(=O)Cn1nnc(-c2ccccc2)n1)C1CCS(=O)(=O)C1 (stereo not drawn) | 14.8%
COc1cccc(N2CCN(c3ncccn3)CC2)c1 | 17.9%
CC(=O)NCCc1nc2cc(NC(=O)c3ccccc3)ccc2n1C | -1.25%
O=C(N/N=C/c1cc(Br)cc([N+](=O)[O-])c1O)c1ccc(NC(=O)c2ccc(F)cc2)cc1 | 12.4%
